Patent US5155209A, “R-(+) enantiomeric form of 7-(2, 3-epoxypropoxy) actinomycin D” (priority 1991, dated 1992)

Tests used:
[1] = test system: DNA synthesis in L1210 cells; test: Inhibition of DNA synthesis in L1210 ([methyl-14C]thymidine incorporation); assay type: cell-based, Murine; conditions: for IC50 DNA relative to IC50 RNA (preference for inhibition of RNA to DNA synthesis): L1210 cells; for IC50: [methyl-14C]thymidine incorporation into DNA, read-out: inhibition of synthesis of nucleic acids in L1210 IC50 DNA
Method: (§1) ^a Drug concentration (micromolor) for 50% reduction of incorporation
(§2) of [methyl^14 C]thymidine into DNA^b and [5^3 H] uridine into
(§3) RNA^c from the rate of incorporation of the same radionucleotides in
(§4) nondrug treated L1210 cells growing actively in vitro.
(§5) Inhibition of nucleic acid synthesis in L1210 lymphoid leukemia cells by (±)-EPA and it optical isomers are assayed. […] In contrast, the racemic (±)-EPA, (R)- (+)-EPA, and (S)-(-)-EPA show about 3 to 1, 2 to 1 and 1 to 1 preference, respectively, for the inhibition of RNA to DNA synthesis. Because of the closeness of the IC50 DNA and IC50 RNA values for these isomers of EPA (Table V), a modification of the process was introduced in order to account for even a marginal cross-incorporation from the [2-^14 C] uridine into DNA. To achieve this, a digestion of the nucleic acid pellet with DNase-free RNase enzyme, prior to final pelleting of the DNA precipitate is made to ensure that no more than ±8% contamination from […] into DNA takes place, and for this the necessary correction is made in the data reported in Table V.

[2] = test system: P388/S lymphocytic leukemia; test: P388/S lymphocytic leukemia in CDF1 mice; assay type: in vivo; conditions: optimal dose level
Method: P388/S is highly responsive to the action of AMD. In order to examine a broader spectrum of activity, these optical isomers are tested in two other mouse leukemia cell lines in vivo. One cell line, P388/ADR, is a derivative of the above P388/S made resistant to intercalating agents like […]. […] This remarkable improvement of activity in all the optically active or racemic forms of this analogue is matched by another alkylating agent, mitomycin C, which is known to act in cells via alkylation of DNA. Presumably, the high activities of these agents are derived primarily from their DNA-alkylatingproperty (Table III).

[3] = test system: Calf Thymus DNA; test: Thermal denaturation (ΔTm) of DNA-drug complex; assay type: binding; conditions: 0.01 phosphate buffer pH 7.0, 5% Me2SO
Method: ^a ΔTm = Tm of DNAdrug complex minus Tm of
drugfree DNA; concentration of drug 14.0 nM and that of DNA 70 nM in 0.01
phosphate buffer, pH 7.0, 5 × 10^3 EDTA and 5% Me2 SO.
Broad Tm of analogues indicate some covalent binding, in contrast to
relatively sharp Tm of actinomycin that is indicative of
intercalative binding to DNA.
DNA-binding experiments were carried out in 0.01M phosphate buffer (pH7), containing EDTA (10^-5 M). For unwinding studies with covalently closed circular DNA, SV 40 DNA (0.234 ug, BRL, Bethesda, MD) was dissolved in 10 mM Trizma base (pH 7.4) buffer containing 50 mM KCl, 50 mM MgCl2, and 0.1 mM EDTA and incubated with appropriate volumes of drug solution for 60 min at 37° C. After the addition of loading buffer (25% bromophenol blue, 25% xylene cyanol in 30% glycerol), each sample was added to a 1% agarose gel. The gels were run at 35 V overnight using a Tris-borate EDTA buffer (pH 8). The DNA was visualized by staining the gel with ethidium bromide (0.5 ug/mL).

[4] = test system: purified calf thymus DNA; test: Covalent and noncovalent (intercalative) binding to calf thymus DNA, [DNA base]/[drug] ratios; conditions: 20 mM Tris-HCl pH 7.4, 37° C.
Method: ^b Binding to purified calf thymus DNA in 20 mM TrisHCl, ph 7.4 buffe
at 37° C.; A values are molar ratios of DNA to drug based on the
total amount of drug that is bound both intercalatively and covalently to
^c B values are similar ratios assayed on the basis of drugs bound
entirely by covalent bonding to DNA base.

[5] = test system: P388/ADR; test: Antitumor activity against ip implanted P388/ADR in CDF1 mice; assay type: in vivo; conditions: days 1-9
Method: ^e Optimal dose of drugs.
^ f Median survival time of tumor bearing mice.
^g Percent increase in median life time in days of drugtreated dying
animals vs those of controls; (survivors), number of 60 days
survivors/number of animals tested in the group.
In order to examine a broader spectrum of activity, these optical isomers are tested in two other mouse leukemia cell lines in vivo. One cell line, P388/ADR, is a derivative of the above P388/S made resistant to intercalating agents like […].

[6] = test system: P388/ADR; test: Inhibition of growth in vitro of P388/ADR cells; assay type: cell-based, mouse
Method: (§6) The analogues are assayed for in vitro growth inhibitory activity against several experimental tumor lines including human and murine leukemia, mouse melanoma, and human lymphoblastic leukemia.

[7] = test system: L1210 cells; test: Inhibition of growth of L1210 cells in culture; assay type: cell-based, Murine; conditions: in vitro growth inhibition
Method: as §6

[8] = test system: RNA synthesis in L1210 cells; test: Inhibition of RNA synthesis in L1210 ([5-3H]uridine incorporation); assay type: cell-based, Murine; conditions: [5-3H]uridine incorporation into RNA; read-out: inhibition of synthesis of nucleic acids in L1210 IC50 RNA
Method: as §1, §2, §3, §4, §5

Cc1c2oc3c(C)c(OCC4CO4)cc(C(=O)NC4C(=O)NC(C(C)C)C(=O)N5CCCC5C(=O)N(C)CC(=O)N(C)C(C(C)C)C(=O)OC4C)c3nc-2c(C(=O)NC2C(=O)NC(C(C)C)C(=O)N3CCCC3C(=O)N(C)CC(=O)N(C)C(C(C)C)C(=O)OC2C)c(N)c1=O (racemic) [3b[(±)-EPA]] [7-(2,3-epoxypropoxy) actinomycin D]
IC50 DNA relative to IC50 RNA (preference for inhibition of RNA to DNA synthesis) [1]: 3 to 1 | % ILS relative to that effected by AMD [2]: 2.5 times | Tm (ΔTm = Tm of DNA-drug complex minus Tm of drug-free DNA) [3]: 5.2 ± 0.95 | [DNA base]/[drug] A: molar ratio of DNA to drug, total drug bound intercalatively and covalently [4]: 32 ± 1 | [DNA base]/[drug] B: molar ratio, drug bound entirely by covalent bonding to DNA base [4]: 480 ± 10 | fold increase of % ILS over actinomycin [5]: 10 fold

Cc1c2oc3c(C)c(OCC4CO4)cc(C(=O)NC4C(=O)NC(C(C)C)C(=O)N5CCCC5C(=O)N(C)CC(=O)N(C)C(C(C)C)C(=O)OC4C)c3nc-2c(C(=O)NC2C(=O)NC(C(C)C)C(=O)N3CCCC3C(=O)N(C)CC(=O)N(C)C(C(C)C)C(=O)OC2C)c(N)c1=O [(R)-(+)-EPA, 7-(2,3-epoxypropoxy) actinomycin D]
potency relative to AMD in the P388/ADR line [6]: more than 6 fold | IC50 DNA relative to IC50 RNA (preference for inhibition of RNA to DNA synthesis) [1]: 2 to 1 | IC50 [1]: 0.06 ± 0.015 µM | potency relative to AMD in the L1210 line [7]: about 3 times | Tm (ΔTm = Tm of DNA-drug complex minus Tm of drug-free DNA) [3]: 4.8 ± 1.15 | [DNA base]/[drug] A: molar ratio of DNA to drug, total drug bound intercalatively and covalently [4]: 30 ± 2 | [DNA base]/[drug] B: molar ratio, drug bound entirely by covalent bonding to DNA base [4]: 500 ± 15 | IC50 [8]: 0.031 ± 0.005 µM

Cc1c2oc3c(C)c(OCC4CO4)cc(C(=O)NC4C(=O)NC(C(C)C)C(=O)N5CCCC5C(=O)N(C)CC(=O)N(C)C(C(C)C)C(=O)OC4C)c3nc-2c(C(=O)NC2C(=O)NC(C(C)C)C(=O)N3CCCC3C(=O)N(C)CC(=O)N(C)C(C(C)C)C(=O)OC2C)c(N)c1=O [(S)-(-)-EPA, 7-(2,3-epoxypropoxy) actinomycin D]
IC50 [1]: 0.06 ± 0.01 µM | Tm (ΔTm = Tm of DNA-drug complex minus Tm of drug-free DNA) [3]: 5.0± 1.10 | [DNA base]/[drug] A: molar ratio of DNA to drug, total drug bound intercalatively and covalently [4]: 32 ± 2 | [DNA base]/[drug] B: molar ratio, drug bound entirely by covalent bonding to DNA base [4]: 520 ± 15 | IC50 [8]: 0.05 ± 0.005 µM
